Consider 63 compounds from the supplement of paper PMC9446081.

Hit rate of the full screen: of about 39,000 compounds, about 220 (0.56%) showed activity. The list shows a part of the results.
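Also: static incubation at 37 °C against the wild-type strain, values averaged over two biological replicates.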

In this test the test system is Escherichia coli K-12 BW25113. The test can be described thus: relative growth (OD600 normalised to plate interquartile mean) (fraction); higher = less growth inhibition, active = 0.2 or less. The settings on record: 50 µM; LB; incubation time: overnight (16-24 h).
For the compound `C[C@@H]1CCCCO[C@@H](CN(C)C(=O)Nc2ccccc2)[C@H](C)CN([C@@H](C)CO)C(=O)c2cc(NS(=O)(=O)c3ccc(F)cc3)ccc2O1`, the relative growth was inactive: 1.05. For `c1cnc(-c2cc[nH]n2)cn1`, the relative growth is inactive: 0.982.

As for `CNC[C@H]1OCCCC[C@H](C)Oc2ccc(NC(=O)Nc3cccc4ccccc34)cc2C(=O)N([C@H](C)CO)C[C@@H]1C`, the relative growth is inactive: 1. On to `C[C@@H]1CCCCO[C@@H](CN(C)C(=O)c2ccncc2)[C@H](C)CN([C@@H](C)CO)C(=O)c2cc(NC(=O)C3CCCCC3)ccc2O1`, for which the relative growth is inactive: 1. In the case of `C[C@H](CO)N1C[C@H](C)[C@H](CN(C)Cc2ccc3c(c2)OCO3)Oc2ccc(NC(=O)Nc3cccc4ccccc34)cc2C1=O`, the relative growth was inactive: 1.03. As for `COc1ccc(CN(C)C[C@@H]2OCCCC[C@@H](C)Oc3ccc(NS(=O)(=O)c4ccc(F)cc4)cc3C(=O)N([C@H](C)CO)C[C@@H]2C)cc1`, the figure is inactive: 1.01. As for `CSCCC(N)C(=O)O` (stereo not drawn), the relative growth is inactive: 1.11. In the case of `C[C@H]1CN([C@@H](C)CO)C(=O)c2cccc(NC(=O)C3CC3)c2O[C@H]1CN(C)Cc1ccc(C(=O)O)cc1` it was inactive: 0.992. Regarding `COc1ccc([Si](C)(C)[C@@H]2[C@@H](CC(=O)N(CCO)Cc3ccccc3)O[C@]3(C(=O)N(C)c4c(Br)cc(C)cc43)[C@H]2C)cc1`, the relative growth is inactive: 1.05. With `C[C@H](CO)N1C[C@H](C)[C@@H](CN(C)C)Oc2ccc(NC(=O)Cc3cn(C)c4ccccc34)cc2CC1=O`, the relative growth is inactive: 0.951.

Take `C[C@@H]1CCCCO[C@H](CN(C)C(=O)c2ccncc2)[C@@H](C)CN([C@H](C)CO)C(=O)c2cc(NS(C)(=O)=O)ccc2O1`: the relative growth was inactive: 0.986. Regarding `CN(C)CC(=O)N[C@H]1CC[C@H](CCNC(=O)C2CCC2)O[C@@H]1CO`, the relative growth was inactive: 0.959. Consider `O=C(CCCCC(=O)N/N=C/[C@H](O)[C@@H](O)[C@H](O)[C@H](O)CO)NO`, for which the relative growth is inactive: 1.01. On to `O=C(C=Cc1ccc(O)cc1)c1ccccc1O`, for which the relative growth was inactive: 0.904.

As to `C[C@@H]1CN([C@H](C)CO)S(=O)(=O)c2ccc(-c3ccncc3)cc2O[C@H]1CN(C)S(=O)(=O)c1ccccc1F`, the relative growth was inactive: 1. Regarding `O=c1[nH]c2ccc(F)cc2[nH]1`, the relative growth was inactive: 0.994. Consider `C[C@H](CO)N1C[C@H](C)[C@@H](CN(C)C(=O)Nc2ccc(F)cc2)Oc2c(NS(C)(=O)=O)cccc2C1=O`, for which the relative growth was inactive: 0.999.

`C[C@H](CO)N1C[C@H](C)[C@@H](CN(C)Cc2ccc(C(=O)O)cc2)Oc2ccc(NC(=O)Nc3cccc4ccccc34)cc2C1=O`: the relative growth is inactive: 0.983. In the case of `COc1ccc2c3c([nH]c2c1)[C@H](CO)N(C[C@]13CCN(CC1)CC1CCCC1)C(=O)CN1CCOCC1` it was inactive: 0.987; in that of `C[C@@H]1CCCCO[C@H](CN(C)CC2CCCCC2)[C@@H](C)CN([C@H](C)CO)C(=O)c2cc(NC(=O)CCCN(C)C)ccc2O1`, inactive: 0.896. Regarding `COc1ccc(S(=O)(=O)N(C)C[C@H]2Oc3cc(-c4ccccc4OC)ccc3S(=O)(=O)N([C@H](C)CO)C[C@@H]2C)cc1`, the relative growth was inactive: 1.03. Consider `Cc1ccc(S(=O)(=O)Nc2ccc3c(c2)C(=O)N([C@@H](C)CO)C[C@H](C)[C@@H](CN(C)C(=O)Nc2ccc(C(F)(F)F)cc2)O3)cc1`, for which the relative growth was inactive: 0.961. Regarding `CN1CCCN(C(=O)c2ncn3c(C4CCN(S(C)(=O)=O)CC4)ccnc23)CC1`, the relative growth was inactive: 0.987. As for `O=C(COCc1nnn2c1CNCCC2)N1CCCC1`, the relative growth was inactive: 1.01. For the compound `CC(C)(C)OC(=O)C[C@@H]1CC=CC[C@@H](CC(=O)NCCO)C(=O)N[C@@H](Cc2c[nH]c3ccccc23)COC1=O`, the relative growth is inactive: 1.03.

On to `COc1ccc(NC(=O)N(C)C[C@@H]2OCCCC[C@@H](C)Oc3ccc(NS(=O)(=O)c4c(C)noc4C)cc3C(=O)N([C@@H](C)CO)C[C@H]2C)cc1`, for which the relative growth is inactive: 0.994.

As for `COc1ccc(-c2cnc3c(c2)C(=O)N([C@H](C)CO)C[C@H](C)[C@H](CN(C)C(=O)Cc2cccnc2)O3)cc1`, the relative growth was inactive: 0.992. In the case of `CC(C)[Si](C#Cc1ccc(Oc2ccccc2)cc1)(O[Si](C#Cc1ccc(Oc2ccccc2)cc1)(C(C)C)C(C)C)C(C)C` it was inactive: 0.997. Turning to `C[C@H]1CN([C@@H](C)CO)C(=O)c2c(c3ccccc3n2C)-c2ccccc2CO[C@@H]1CN(C)Cc1ccccc1C(F)(F)F`, the relative growth was inactive: 1.03. For `O=C1O[C@H](c2ccccc2)[C@H](c2ccccc2)N2[C@H]1[C@@H](C(=O)Nc1nc3ccccc3s1)[C@]1(C(=O)Nc3ccccc31)[C@H]2c1ccc(O)cc1`, the relative growth was inactive: 1.02. With `C[C@H](CO)N1C[C@H](C)[C@@H](CN(C)S(C)(=O)=O)OCc2ccccc2-c2c(n(C)c3ccccc23)C1=O`, the relative growth was inactive: 1.02. In the case of `Cc1cccc(N[C@H]2CS(=O)(=O)C[C@@H]2O)c1` it was inactive: 0.937; in that of `COc1ccc(CN(C)C[C@@H]2OCCCC[C@@H](C)Oc3ccc(NS(=O)(=O)c4cccs4)cc3C(=O)N([C@H](C)CO)C[C@@H]2C)cc1`, inactive: 0.987. In the case of `COCC(=O)N(C)C[C@@H]1Oc2cc(-c3ccc(OC)cc3)ccc2S(=O)(=O)N([C@H](C)CO)C[C@H]1C` it was inactive: 0.999.

For the compound `O=C(NCc1cccc(F)c1)[C@H]1[C@H](CO)[C@H]2Cn3c(cccc3=O)[C@@H]1N2C(=O)c1cnccn1`, the relative growth was inactive: 0.969. Turning to `C[C@@H]1CCCCO[C@@H](CN(C)Cc2ccc(Cl)c(Cl)c2)[C@@H](C)CN([C@H](C)CO)C(=O)c2cc(NS(=O)(=O)c3ccc(F)cc3)ccc2O1`, the relative growth was inactive: 1.01.

As for `COc1ccc(S(=O)(=O)N(C)C[C@@H]2Oc3ccc(N(C)C)cc3C(=O)N([C@@H](C)CO)C[C@@H]2C)cc1`, the relative growth is inactive: 1.01. `C[C@@H]1CN([C@H](C)CO)C(=O)c2cc(NC(=O)Cn3cnnn3)ccc2O[C@@H]1CN(C)C(=O)Nc1cccc2ccccc12`: the relative growth was inactive: 0.887. As for `O=Cc1ccccc1O[C@@H]1O[C@H](CO)[C@H](O)[C@@H](O)[C@H]1O`, the relative growth was inactive: 0.987. For the compound `CC(C)(C)c1nc[nH]c1/C=c1\[nH]c(=O)/c(=C/c2ccccc2)[nH]c1=O`, the relative growth was inactive: 0.971. Take `C[C@@H]1CN([C@@H](C)CO)C(=O)c2cccc(NC(=O)Nc3ccccc3)c2O[C@H]1CN(C)Cc1ccc(-c2ccccc2)cc1`: the relative growth was inactive: 0.994.

For `O=C(C[C@@H]1C=C[C@@H](NC(=O)Cc2ccccn2)[C@@H](CO)O1)NCCc1ccncc1`, the relative growth is inactive: 0.99. As for `C[C@H](CO)N1C[C@H](C)[C@H](CN(C)Cc2ccc(Cl)c(Cl)c2)Oc2ccc(NC(=O)Cn3cnnn3)cc2CC1=O`, the figure is inactive: 0.999. With `CNC[C@H]1Oc2ccc(NC(=O)CCN3CCOCC3)cc2CC(=O)N([C@H](C)CO)C[C@H]1C`, the relative growth is inactive: 0.98.

As for `Cc1noc(C)c1S(=O)(=O)N(C)C[C@H]1Oc2c(NC(=O)C3CCCCC3)cccc2C(=O)N([C@H](C)CO)C[C@H]1C`, the relative growth was inactive: 1.01. As to `CC(C)NC(=O)Nc1ccc2c(c1)C(=O)N(C)[C@@H]1CC[C@H](CC(=O)NCc3ccc(F)cc3)O[C@H]1CO2`, the relative growth was inactive: 0.981. With `C[C@@H]1CCCCO[C@@H](CN(C)C(=O)Nc2cccc3ccccc23)[C@@H](C)CN([C@@H](C)CO)C(=O)c2cc(NC(=O)c3ccccc3)ccc2O1`, the relative growth was inactive: 1.02.

`COc1ccc2c3c([nH]c2c1)[C@@H](CO)N(Cc1ccncc1)C[C@]13CCN(CC1)Cc1ccc(cc1)-c1ccccn1`: the relative growth is inactive: 0.998. With `CC(C)NCC(O)c1ccc(O)c(O)c1.Cl` (stereo not drawn), the relative growth is inactive: 0.895. Take `Cc1ccc(S(=O)(=O)Nc2ccc3c(c2)C(=O)N([C@H](C)CO)C[C@H](C)[C@@H](CN(C)C(=O)Nc2ccc(C(F)(F)F)cc2)OCCCC[C@@H](C)O3)cc1`: the relative growth is inactive: 1.01. As for `O=C(c1ccccc1)N1Cc2ccccc2[C@H]2OC(c3ccc(OCCCO)cc3)=N[C@@]2(Cc2ccccc2)C1=O`, the figure is inactive: 1.04. In the case of `CC(C)(S)C(N)C(=O)O.NCCO` (stereo not drawn) it was inactive: 1.07; in that of `Cc1noc(C)c1S(=O)(=O)N(C)C[C@@H]1Oc2ccc(NC(=O)Cc3cn(C)c4ccccc34)cc2CC(=O)N([C@H](C)CO)C[C@H]1C`, inactive: 1. Turning to `O=C(C[C@H]1CC[C@H]2[C@@H](COC[C@H](O)CN2C(=O)c2cccnc2)O1)NCc1ccc(-c2ccccc2)cc1`, the relative growth is inactive: 1.01. As for `O=C(C[C@H]1CC[C@H]2[C@@H](COC[C@@H](O)CN2S(=O)(=O)c2ccc(F)cc2)O1)NCCN1CCCCC1`, the figure is inactive: 0.951; as for `C[C@H]1CN([C@@H](C)CO)C(=O)c2cc(NC(=O)Nc3ccc(C(F)(F)F)cc3)ccc2O[C@H]1CN(C)S(C)(=O)=O`, inactive: 0.96; as for `NC(=O)N1c2ccccc2CC(=O)c2ccccc21`, inactive: 1.18. On to `COC(=O)Cn1c(=O)c2c(OC)c(C)cnc2n(C)c1=O`, for which the relative growth is inactive: 0.981. For the compound `C[C@H]1CN([C@@H](C)CO)C(=O)Cc2cc(NC(=O)Nc3cccc4ccccc34)ccc2O[C@@H]1CN(C)Cc1ccc(C(F)(F)F)cc1`, the relative growth is inactive: 1.02.

Consider `O=C(C[C@@H]1CC[C@H]2[C@@H](COC[C@@H](O)CN2S(=O)(=O)c2cccc(F)c2)O1)NCc1ccc2c(c1)OCO2`, for which the relative growth is inactive: 1. Turning to `C[C@H](CO)N1C[C@H](C)[C@@H](CN(C)S(=O)(=O)c2ccc(F)cc2)OCCCC[C@H](C)Oc2ccc(NC(=O)Cc3ccccc3)cc2C1=O`, the relative growth was inactive: 0.92. Consider `COC(=O)C[C@@H]1CC[C@H]2[C@@H](COC[C@H](O)CN2S(=O)(=O)c2ccc(F)cc2)O1`, for which the relative growth is inactive: 1.02. Consider `O=C(C[C@@H]1C=C[C@H](NC(=O)c2cccnc2)[C@H](CO)O1)NCc1ccncn1`, for which the relative growth is inactive: 1.01.
